Hit rate of the full screen: of about 330,000 compounds, about 560 (0.17%) were called active. The inconclusive results got no clear call from the source; some entries with a clear call stand among them for comparison. The call rests on the fitted dose curve; in most records, active means well fitted inhibition curve with a large enough effect; inconclusive means small, poorly fitted or top-dose-only effect, or effect the other way; inactive means flat fitted curve, though single readings scatter. Potencies of inconclusive entries are left out as doubtful fits.
These compounds were tested against ATP-dependent 6-phosphofructokinase (Trypanosoma brucei brucei) (UniProt O15648) (assay: qHTS Assay to Find Inhibitors of T. brucei phosphofructokinase). Details: T. brucei PFK, ADP-Glo luminescence; activity, negative = inhibition: at 57.5 µM (top of the series).
Sequence of UniProt O15648 (O15648 whole entry, looked up): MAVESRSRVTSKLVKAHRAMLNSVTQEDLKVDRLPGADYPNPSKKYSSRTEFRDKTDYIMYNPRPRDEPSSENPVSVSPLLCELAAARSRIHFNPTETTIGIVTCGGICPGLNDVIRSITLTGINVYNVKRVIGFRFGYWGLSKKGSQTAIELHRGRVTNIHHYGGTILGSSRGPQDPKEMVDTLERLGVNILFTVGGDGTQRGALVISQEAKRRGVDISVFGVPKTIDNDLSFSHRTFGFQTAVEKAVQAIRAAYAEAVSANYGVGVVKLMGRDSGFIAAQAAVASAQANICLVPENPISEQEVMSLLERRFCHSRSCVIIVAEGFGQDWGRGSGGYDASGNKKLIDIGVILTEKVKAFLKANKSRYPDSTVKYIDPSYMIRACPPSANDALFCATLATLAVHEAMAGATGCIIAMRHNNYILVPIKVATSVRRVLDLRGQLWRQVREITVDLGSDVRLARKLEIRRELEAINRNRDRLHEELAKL
Method in brief: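 Compounds were pin-transferred as a titration series up to 57 uM into substrate buffer (0.5 mM F6P, 0.1 mM ATP, pH 8.0), then 1.25 nM PFK was added and reactions ran 45 min before ADP-Glo detection.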
Further: nearly all actives have a fitted effect of over 60% in size.
Potency means the concentration at half of the fitted maximal effect; tags describe the fitted curve by direction and shape.
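Wherever activity, negative = inhibition is given: 0% = uninhibited 1x PFK enzyme wells and -100% = no-enzyme wells.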

Compound | activity, negative = inhibition | Potency
COc1ccc2[nH]c(C(=O)O)c(CCN3C(=O)c4ccc(C(=O)O)cc4C3=O)c2c1 | inactive: -0.0203% | –
NC(=O)c1ccc[n+]([C@H]2O[C@@H](COP(=O)([O-])OP(=O)(O)OC[C@H]3O[C@@H](n4cnc5c(N)ncnc54)[C@H](O)[C@@H]3O)[C@H](O)[C@@H]2O)c1 | – | inconclusive [activator, partial curve]
CCOc1ccc(C2C(C(=O)Nc3ccccc3)=C(C)N=c3s/c(=C/c4cccc(OCC(=O)O)c4)c(=O)n32)cc1 (centres undefined) | inactive: 5.62% | –
CC(=O)Nc1ccc(SCC(=O)c2cc(C)n(-c3ccccc3F)c2C)cc1 | – | inconclusive [activator, single point]
O=C(CSCCSCC(=O)c1ccco1)c1ccco1 | – | inconclusive [falling, single point]
CCCCOc1cccc(C(=O)NC(=S)Nc2cccc(NC(=O)c3ccccc3Cl)c2)c1 | – | inconclusive [falling, single point]
CCCC1(C)Nc2ccccc2-c2nc3ccccc3n21 (centres undefined) | inactive: -2.52% | –
O=C(Nc1ccc(CN2CCOCC2)cc1)c1ccc(Cl)cc1 | inactive: 1.66% | –
COc1ccc(-c2coc3c(CN4CCCCC4)c(O)c(CN4CCCCC4)c(O)c3c2=O)cc1 | – | inconclusive [activator, single point]
CC(=O)OCCn1c(C)[n+](CCOC(C)=O)c2cc(Cl)c(Cl)cc21 | inactive: -11.6% | –
O=C(Nc1cccc(Cl)c1)c1cccc(N2C(=O)C3CC=CCC3C2=O)c1 (centres undefined) | – | active: 26.9 µM
O=C(Nc1ccc(Br)cc1)N1CCCCCC1 | – | inconclusive [falling, single point]
C[N+](C)(C)C/C=C1/COCO1 | inactive: -1.24% | –
Cc1ccc(C2c3c(oc4ccc(Cl)cc4c3=O)C(=O)N2CCCN2CCOCC2)o1 (centres undefined) | – | inconclusive [activator, single point]
CCOC(=O)C1=C(C)N(c2ccc(C)cc2)C(=O)/C1=C\c1ccc(O)c(OC)c1 | – | inconclusive [falling, single point]
O=[N+]([O-])c1ccc(C2CC(c3ccccc3)=Nc3ccccc3S2)cc1 (centres undefined) | – | inconclusive [falling, partial curve]
CCn1ccnc1CN1CCCCC1C(=O)Nc1ccc(Oc2cccnc2)cc1 (centres undefined) | – | inconclusive [falling, partial curve, poor fit]
CCn1c2ccccc2c2cc(NC(=O)COC(=O)c3ccc(NC(=O)CC#N)cc3)ccc21 | – | inconclusive [falling, single point]
O=C(C[n+]1ccc(CCSc2ccc(F)cc2)cc1)c1ccccc1 | – | inconclusive [activator, single point]
CCC(C)C(=O)N1c2ccccc2C(=C2SC(C(=O)OC)=C(C(=O)OC)S2)C(=S)C1(C)C (centres undefined) | inactive: -6.09% | –
C=C(C)C(=O)Nc1cccc(C2=NOC3(C2)C[C@H](C(N)=O)N(C(=O)C(c2ccccc2)c2ccccc2)C3)c1 (some centres undefined) | – | inconclusive [falling, partial curve]
Cc1cc(C)nc(/N=C2\NC(=O)CC(C(=O)O)N2c2ccc(C)c(C)c2)n1 (centres undefined) | inactive: 4.61% | –
Cc1csc(NC(=O)CSc2nnc(Cc3cccn3C)n2CCc2ccccc2)n1 | – | inconclusive [falling, single point]

Compound | activity, negative = inhibition | Potency
Nc1ccc(N2CCN(c3ccc(Cl)c(Cl)c3)CC2)cc1 | – | inconclusive [falling, single point]
Cc1c(NC(=O)c2cccc(NC(=O)Cc3ccc(Cl)cc3)c2)c(=O)n(-c2ccccc2)n1C | – | inconclusive [falling, partial curve]
CCCSC1=N/C(=C\C=C\c2ccco2)C(=O)S1 | – | inconclusive [falling, single point]
Cc1cccc(/C=N/n2c(COc3ccccc3)n[nH]c2=S)c1 | – | inconclusive [falling, single point]
Cc1c(NC(=S)NC(=O)c2cccc3ccccc23)cccc1C(=O)O | inactive: 2.01% | –
COc1ccc2nc(NC(=O)CSc3n[nH]c(N)n3)sc2c1 | – | inconclusive [falling, single point]
CC1=NN(c2ccccc2)C(=O)/C1=C/c1cccs1 | – | inconclusive [falling, single point]
Cc1nc(C)c(/C(O)=C/c2nc3ccc([N+](=O)[O-])cc3oc2=O)o1 | – | inconclusive [falling, single point]
O=C(Nc1ncn[nH]1)c1ccc(Cl)c(S(=O)(=O)Nc2ccc(Cl)cc2)c1 | – | inconclusive [falling, single point]
FC(F)(F)c1cccc(NC(=S)NNC(=S)Nc2ccc(Cl)cc2)c1 | – | inconclusive [falling, single point]
C=CCN1CCN(C(=O)c2oc3ccccc3c2C)CC1 | – | inconclusive [falling, single point]
COc1cc(C2C3=C(CCCC3=O)Nc3c2c(C)nn3-c2cccc(C)c2)cc(OC)c1O (centres undefined) | inactive: 0% | –
Cc1ccc(NC(=O)CN2C(=O)S/C(=C/c3ccc(-c4cccc(C(=O)O)c4)o3)C2=O)cc1 | – | inconclusive [falling, single point]
COc1ccc(-c2nn(-c3ccccc3)cc2C(=O)Nc2cccc(C(=O)O)c2)cc1[N+](=O)[O-] | – | inconclusive [falling, single point]
Cc1occc1C(=O)N/N=C/c1ccc(N(C)C)cc1 | – | inconclusive [falling, partial curve]
CCCCN(C(=O)c1cccc(-n2cccc2)c1)c1c(N)n(CCCC)c(=O)[nH]c1=O | – | inconclusive [falling, full curve]
CCCN1C(=O)S/C(=C\c2ccc(N3CCOCC3)o2)C1=O | – | inconclusive [falling, partial curve]
O=C(NCCO)c1ccc2nc(-c3ccco3)c(-c3ccco3)nc2c1 | inactive: -10.4% | –
O=C(Oc1cccc2cccnc12)c1ccc(Br)o1 | inactive: -0.375% | –
COc1ccc(NC(=O)c2sc3ncn(CC(=O)N4CCN(c5ccccn5)CC4)c(=O)c3c2C)cc1OC | – | inconclusive [falling, single point]
O=c1[nH]c2cc3c(cc2cc1C(c1nnnn1Cc1ccccc1)N1CCCc2ccccc21)OCO3 (centres undefined) | inactive: 0.482% | –
CCc1ccccc1N(CC(=O)Nc1cccc(N(C)S(C)(=O)=O)c1)S(C)(=O)=O | – | inconclusive [falling, single point]
CCC(Oc1ccccc1)C(=O)N(Cc1ccccc1)c1ccccn1 (centres undefined) | – | inconclusive [falling, single point]

Compound | activity, negative = inhibition | Potency
Cc1nc(C)c(C(=O)Nc2ccc(Oc3ccccc3)cc2)o1 | – | inconclusive [falling, single point]
CC(C)(Oc1ccc(Cl)cc1)C(=O)Nc1ccc(S(=O)(=O)Nc2ncccn2)cc1 | inactive: -0.577% | –
C/C(=N\NC(=O)c1c(Br)cnn1C)c1ccc(NC(=O)c2ccc(F)cc2)cc1 | – | inconclusive [falling, single point]
CSc1ccccc1C(=O)Nc1ccc2c(c1)CCC2 | inactive: -0.151% | –
O=C(COC(=O)/C=C/c1cccc(Cl)c1)Nc1cccc(S(=O)(=O)NC2=NCCC2)c1 | inactive: 1.38% | –
CC1(OC(=O)C2CCCC2)C(=O)C=C2C=C(c3ccsc3)OC=C2C1=O (centres undefined) | inactive: -0.21% | –
COc1ccc(N2Cc3cccc(C(=O)O)c3C2=O)cc1 | – | inconclusive [falling, single point]
COc1cc([N+](=O)[O-])cc([N+](=O)[O-])c1NC(=O)N1CCOCC1 | – | inconclusive [falling, partial curve, poor fit]
CCOC(=O)c1cc(-c2ccc(/C=C3/C(=O)NC(=O)C(C#N)=C3C)o2)ccc1Cl | inactive: -10% | –
COc1ccc(N2CCN(C(=O)CSc3nnc(CNc4ccccc4)o3)CC2)cc1 | – | inconclusive [falling, partial curve]
O=C(Cc1ccc(Cl)cc1)Nc1ccc(S(=O)(=O)N2CCOCC2)cc1 | – | active: 21.3 µM
CC(=O)NS(=O)(=O)c1ccc(NC(=O)CSc2ccc(Cl)cc2)cc1 | – | active: 30.1 µM
O=S1(=O)CCN(Cc2ccc(Cl)c(C(F)(F)F)c2)CC1 | – | inconclusive [falling, partial curve]
COc1ccccc1C1CCN(Cc2ccccc2)CC1 | inactive: 3.06% | –
CC(/C=C/c1ccco1)=N\NC(=O)c1cc(Cl)ccc1O | – | inconclusive [activator, single point]
COc1ccc(CNC(=O)CN(C(=O)c2csnn2)c2cccc3ccccc23)cc1 | inactive: 0.707% | –
CN(CC1CCOCC1)C(=O)c1ccc2nc(Cc3cccc(Cl)c3)oc2c1 | – | inconclusive [falling, partial curve]
O=C(NN(C(=O)c1ccccc1)c1ccccc1)c1ccccc1 | – | inconclusive [falling, single point]
Cc1nn(C(C)C(=O)NCc2ccco2)c(C)c1[N+](=O)[O-] (centres undefined) | inactive: -1.8% | –
Cc1ccc(OCC(=O)c2c(N)n(C)c(=O)n(C)c2=O)c([N+](=O)[O-])n1 | – | inconclusive [falling, single point]
COC(=O)c1c(NC(=O)CCc2ccc(C)o2)sc(C)c1C | inactive: 7.87% | –
O=C(COC(=O)/C=C/c1cccc(C(F)(F)F)c1)NCc1ccco1 | – | inconclusive [falling, single point]
CCC(=O)Nc1ccc(S(=O)(=O)Nc2cccc(C)c2)cc1OC | – | inconclusive [falling, single point]

From PubChem BioAssay AID485367 (National Center for Advancing Translational Sciences (NCATS), 2010)
